By IC50 is meant the dose at which the fit gives 50% viability; fits outside the tested doses are given as limits. For AUC the same curve is integrated over the 256-fold range of doses and scaled to a fraction; the more sensitive the line, the further below 1. For some assays here: An inferred top dose was derived from the fitted curves, not read from the paper.
compound: CC[C@H](Nc1ncnc2[nH]cnc12)c1nc2cccc(F)c2c(=O)n1-c1ccccc1 [CAL-101]; test: Viability of human cancer cell lines after 72 h of drug (GDSC screen); conditions: not given
Experimental: (§1)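 Human cancer cell lines in 384-well plates, medium with 10% serum, drug for 72 h over a 256-fold dose range (nine 2-fold or five 4-fold steps up to the top dose). Adherent lines were fixed and stained with the nucleic acid dye Syto60, suspension lines read with resazurin; signal relative to control wells, capped at 0 and 100%. One two-parameter sigmoid per drug and line, fitted in a mixed model over all curves with the slope shared within a line.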

| Cell Line | AUC | IC50 [µM] |
| --- | --- | --- |
| 8-MG-BA (glioma, adherent, top dose 20 µM) | 0.953 | > 20 |
| 22RV1 (prostate, adherent, top dose 20 µM) | 0.935 | > 20 |
| 42-MG-BA (glioma, adherent, top dose 20 µM) | 0.967 | > 20 |
| 201T (lung adenocarcinoma, adherent, top dose 20 µM) | 0.961 | > 20 |
| 451Lu (melanoma, adherent, top dose 20 µM) | 0.987 | > 20 |
| 639-V (bladder, adherent, top dose 20 µM) | 0.987 | > 20 |
| 647-V (bladder, adherent, top dose 20 µM) | 0.948 | > 20 |
| 697 (lymphoblastic leukaemia, suspension, top dose 20 µM) | 0.825 | 8.94 |
| 769-P (kidney, adherent, top dose 20 µM) | 0.945 | > 20 |
| 5637 (bladder, adherent, top dose 20 µM) | 0.966 | > 20 |
| 8305C (thyroid, adherent, top dose 20 µM) | 0.936 | > 20 |
| 8505C (thyroid, adherent, top dose 20 µM) | 0.97 | > 20 |
| 23132-87 (stomach, adherent, top dose 20 µM) | 0.958 | > 20 |
| A3-KAW (B-cell lymphoma, suspension, top dose 20 µM) | 0.872 | 12.8 |
| A4-Fuk (B-cell lymphoma, suspension, top dose 20 µM) | 0.935 | > 20 |
| A101D (melanoma, adherent, top dose 20 µM) | 0.98 | > 20 |
| A172 (glioma, adherent, top dose 20 µM) | 0.983 | > 20 |
| A204 (rhabdomyosarcoma, adherent, top dose 20 µM) | 0.872 | > 20 |
| A253 (head and neck, adherent, top dose 20 µM) | 0.982 | > 20 |

| Cell Line | AUC | IC50 [µM] |
| --- | --- | --- |
| A388 (skin, adherent, top dose 20 µM) | 0.965 | > 20 |
| A427 (non-small cell lung carcinoma, adherent, top dose 20 µM) | 0.979 | > 20 |
| A431 (skin, adherent, top dose 20 µM) | 0.974 | > 20 |
| A498 (kidney, adherent, top dose 20 µM) | 0.962 | > 20 |
| A673 (rhabdomyosarcoma, adherent, top dose 20 µM) | 0.974 | > 20 |
| A704 (kidney, adherent, top dose 20 µM) | 0.979 | > 20 |
| A2058 (melanoma, adherent, top dose 20 µM) | 0.971 | > 20 |
| A2780 (ovary, semi-adherent, top dose 20 µM) | 0.858 | 17.3 |
| ABC-1 (lung adenocarcinoma, adherent, top dose 20 µM) | 0.928 | > 20 |
| ACHN (kidney, adherent, top dose 20 µM) | 0.934 | > 20 |
| AGS (stomach, adherent, top dose 20 µM) | 0.973 | > 20 |
| ALL-PO (lymphoblastic leukaemia, suspension, top dose 20 µM) | 0.803 | 10.6 |
| ALL-SIL (T-cell leukaemia, suspension, top dose 20 µM) | 0.85 | 12.1 |
| AM-38 (glioma, semi-adherent, top dose 20 µM) | 0.937 | > 20 |
| AMO-1 (haematopoietic neoplasm, suspension, top dose 20 µM) | 0.97 | > 20 |
| AN3-CA (endometrium, adherent, top dose 20 µM) | 0.961 | > 20 |
| ARH-77 (myeloma, suspension, top dose 20 µM) | 0.677 | 3.81 |
| ASH-3 (thyroid, adherent, top dose 20 µM) | 0.987 | > 20 |
| ATN-1 (T-cell lymphoblastic leukaemia, suspension, top dose 20 µM) | 0.868 | 16.2 |

| Cell Line | AUC | IC50 [µM] |
| --- | --- | --- |
| AU565 (breast, adherent, top dose 20 µM) | 0.972 | > 20 |
| AsPC-1 (pancreas, adherent, top dose 20 µM) | 0.919 | > 20 |
| BB30-HNC (head and neck, adherent, top dose 20 µM) | 0.946 | > 20 |
| BB49-HNC (head and neck, adherent, top dose 20 µM) | 0.951 | > 20 |
| BB65-RCC (kidney, adherent, top dose 20 µM) | 0.907 | > 20 |
| BC-1 (B-cell lymphoma, suspension, top dose 20 µM) | 0.924 | > 20 |
| BC-3 (B-cell lymphoma, suspension, top dose 20 µM) | 0.941 | > 20 |
| BCPAP (thyroid, adherent, top dose 20 µM) | 0.959 | > 20 |
| BE2-M17 (neuroblastoma, adherent, top dose 20 µM) | 0.979 | > 20 |
| BE-13 (lymphoblastic leukaemia, suspension, top dose 20 µM) | 0.952 | > 20 |
| BEN (non-small cell lung carcinoma, adherent, top dose 20 µM) | 0.978 | > 20 |
| BFTC-905 (bladder, adherent, top dose 20 µM) | 0.968 | > 20 |
| BFTC-909 (kidney, adherent, top dose 20 µM) | 0.987 | > 20 |
| BHT-101 (thyroid, adherent, top dose 20 µM) | 0.953 | > 20 |
| BHY (head and neck, adherent, top dose 20 µM) | 0.946 | > 20 |
| BICR10 (head and neck, adherent, top dose 20 µM) | 0.985 | > 20 |
| BICR22 (head and neck, adherent, top dose 20 µM) | 0.97 | > 20 |
| BICR31 (head and neck, adherent, top dose 20 µM) | 0.952 | > 20 |
| BICR78 (head and neck, adherent, top dose 20 µM) | 0.975 | > 20 |

compound: O=C(NC(COc1ccc2[nH]c(=O)[nH]c2c1)c1ccccc1)c1cccn(Cc2ccc(F)c(F)c2)c1=O [KIN001-244]; test: as above; conditions: top dose 20 µM; top dose inferred
Experimental: as §1

| Cell Line | AUC | IC50 [µM] |
| --- | --- | --- |
| COR-L311 (small cell lung carcinoma, suspension) | 0.883 | > 20 |
| K-562 (chronic myeloid leukaemia, suspension) | 0.85 | 14.5 |

compound: CCc1cncnc1N1CCN(Cc2nc3ccc(C(F)(F)F)cc3[nH]2)CC1 [PF-4708671]; test: as above; conditions: top dose 10 µM; top dose inferred
Experimental: as §1

| Cell Line | AUC | IC50 [µM] |
| --- | --- | --- |
| A549 (lung adenocarcinoma, adherent) | 0.92 | > 10 |
| MM1S (myeloma, suspension) | 0.883 | 9.77 |
| NCI-H1650 (lung adenocarcinoma, adherent) | 0.958 | > 10 |
| OCI-LY7 (B-cell lymphoma, suspension) | 0.962 | > 10 |

compound: COc1cc2nccc(Oc3ccc(NC(=O)Nc4cc(C)on4)c(Cl)c3)c2cc1OC [AV-951]; test: as above; conditions: top dose 0.128 µM; top dose inferred
Experimental: as §1

| Cell Line | AUC | IC50 [µM] |
| --- | --- | --- |
| COR-L311 (small cell lung carcinoma, suspension) | 0.981 | > 0.128 |

— the supplement of paper PMC4967469
